Experimental data taken from PubChem BioAssay AID651820 (National Center for Advancing Translational Sciences (NCATS), 2012).
Out of some 340,000 compounds screened, about 12,000 (3.5%) were called active. Inconclusive means that the source gave no clear call. Such entries were picked first, then a sample of the others. Calls come from the whole dose curve; as a rule, active = well fitted inhibition curve with a large enough effect; inconclusive = small, poorly fitted or top-dose-only effect, or another doubt; inactive = no such curve, though single readings can be large or run the other way. No potency is given beside an inconclusive call; the fits are too rough.

Assay: qHTS Assay for Inhibitors of Hepatitis C Virus (HCV)
Details: Huh7.5.1 HCVcc-Cre (HCVcc is cell-culture hepatitis C virus) infection, luciferase reporter, 44 h; activity change, negative = inhibition: at 41.8 µM (top of the series)
How it was run: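 1,000 cells/well; 4 h culture; + compound; + HCVcc-Cre (~0.5 moi); 44 h; luciferase substrate, RT 15 min; read 15 sec.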
% is set by controls: 0 for no effect and ±100 for the full control effect; potency is the fitted concentration of half-maximal effect; tags give direction and shape of the fitted curve.

| Compound | Potency | activity change, negative = inhibition |
| --- | --- | --- |
| CN1CCC(=NNC(=O)CN(c2cccc(Cl)c2)S(C)(=O)=O)CC1 | inconclusive [inhibitor, full curve, poor fit] |  |
| N/C(=N\O)c1ccccc1N1CCCCC1 | inactive |  |
| Brc1ccc(-c2nc3ccccc3s2)s1 | inactive |  |
| CCOC(=O)c1c(C)n(CC(O)CN2CCOCC2)c2cc(Br)c(OC)cc12 (stereo unspecified) | inconclusive [inhibitor, full curve] |  |
| Cc1[nH]c2ccccc2c1/C=N/Nc1nc2ccccc2[nH]1 | inconclusive [inhibitor, single point] |  |
| CSc1cc(-c2ccc(Cl)cc2)c(C(=O)NN)s1 | active: 3.55 µM |  |
| CCc1ccc(C2CC(c3ccc(F)cc3)Nc3nc(N)nn32)cc1 (stereo unspecified) | inactive |  |
| CCCn1nc(C(=O)NNC(=O)CSCC(=O)Nc2cc(C)on2)c2ccccc2c1=O | inconclusive [inhibitor, single point] |  |
| Cc1cnc(C(=O)OCC(=O)c2ccc(-c3ccccc3)cc2)cn1 | inactive |  |
| COc1ccccc1-c1nc(-c2ccccn2)no1 | inconclusive [inhibitor, single point] |  |
| Cc1nn(C)c(C)c1N1C(=O)c2cccc3c(Br)ccc(c23)C1=O | inconclusive [inhibitor, partial curve] |  |
| O=C(Nc1ccc(N2CCOCC2)c2nonc12)C1CCCC1 | inactive |  |
| Cc1cc(NC(=O)c2c(C)noc2C)no1 | inactive |  |
| Cc1ccc(N(Cc2ccccc2)C(=O)c2cccc(S(=O)(=O)N3CC(C)OC(C)C3)c2)cc1 (stereo unspecified) |  | inconclusive: -86.6% [inhibitor] |
| Cc1ccc(C)c(OCc2cc(C(=O)NC(c3ccccn3)C(F)(F)F)no2)c1 (stereo unspecified) | inconclusive [inhibitor, single point] |  |
| COCc1cc(OC)nc(-c2csc(C)n2)n1 | inconclusive [inhibitor, single point] |  |
| CN1CCN(c2ccc(-c3cccc(NC(=O)COc4ccccc4)c3)nn2)CC1 | inconclusive [inhibitor, single point] |  |
| Cc1ccc(S(=O)(=O)N(C)C)cc1NC(=O)c1cccnc1Oc1ccccc1 | inactive |  |
| O=[N+]([O-])c1cccc2c(N3CCCC3)ccnc12 | active: 3.55 µM |  |
| O=C(CN1C2=NCCCN2c2ccccc21)c1ccc([N+](=O)[O-])cc1 | active: 11.2 µM |  |
| COCCSc1ccccc1C(=O)Nc1ccc(Cl)cn1 | inactive |  |
| O=C(NCCc1ccccc1)c1c(F)cccc1F | inactive |  |
| Cc1cc(NC(=O)c2ccc(N(C)S(=O)(=O)c3ccccc3)cc2)no1 | inconclusive [inhibitor, partial curve, poor fit] |  |
| CCCCc1ccc(NC(=O)NCc2ccccn2)cc1 | inconclusive [inhibitor, single point] |  |

| Compound | Potency | activity change, negative = inhibition |
| --- | --- | --- |
| CCN(CC(=O)NC(=O)NCc1ccccc1)CC(=O)Nc1cc(Cl)ccc1C | inconclusive [inhibitor, partial curve] |  |
| COc1ccccc1C(=O)COC(=O)c1ccc(-n2cnnn2)cc1 | active: 10 µM |  |
| COCCN(C(=O)Cc1ccc(OC)c(OC)c1)c1nc(-c2cc(OC)ccc2OC)cs1 | inconclusive [inhibitor, partial curve] |  |
| COc1ccc(/C=N/Nc2cc(C)nc3c(C)cccc23)cc1 | active: 12.6 µM |  |
| CNC(=O)C(C#N)(Cc1cc(C(C)=O)ccc1OC)Cc1cc(C(C)=O)ccc1OC | inactive |  |
| COc1cccc(NS(=O)(=O)c2ccc3[nH]cc(C(=O)NCCC(C)C)c(=O)c3c2)c1 | inconclusive [inhibitor, partial curve, poor fit] |  |
| Cc1ccccc1N=Cc1c(O)n(-c2nccs2)c(=O)c2ccccc12 | inconclusive [inhibitor, single point] |  |
| Cc1ccc(CSCC(=O)N(CCC(C)C)c2c(N)n(Cc3ccccc3)c(=O)[nH]c2=O)cc1 |  | inconclusive: -34.9% [inhibitor] |
| C#CCOCCOCCOCCNc1nc(N2CCN(C(=O)CCCCCCCCCCNC(=O)Cn3cc(C[C@@H](C)O)nn3)CC2)nc(N2CCN(C(=O)CCCCCCCCCCNC(=O)[C@H](CCCCN)n3cc(C[C@@H](C)CC)nn3)CC2)n1 | inconclusive [inhibitor, single point] |  |
| COc1ccc(/C=N/NC(=O)c2ccncc2)cc1CN1CCCc2ccccc21 | inconclusive [inhibitor, full curve, poor fit] |  |
| Cc1ccc(NC(=O)Nc2c(C)[nH]c(=O)[nH]c2=O)cc1Cl | inactive |  |
| Cc1ccc(Cc2nnc3n(-c4cccc(C)c4)nc(C(=O)c4ccccc4)n3c2=O)cc1 | inactive |  |
| Cc1cc(C)c(-c2csc(NC(=O)c3n[nH]c(=O)c4ccccc34)n2)c(C)c1 | inconclusive [inhibitor, full curve] |  |
| O=C(N/N=C/c1ccoc1)c1cc(Br)ccc1O | inactive |  |
| CC(C)(C)C(=O)Nc1ccc2c(c1)-c1cc(NC(=O)C(C)(C)C)ccc1C2 | inconclusive [inhibitor, full curve, poor fit] |  |
| CC1Cc2ccccc2N1C(=O)NC1CC(=O)N(c2ccc3c(c2)OCCO3)C1 (stereo unspecified) | inactive |  |
| COc1ccc(CNC2c3ccccc3-c3ccccc32)cc1OC | inactive |  |
| O=C(CSc1ccc(Br)cc1)Nc1cccc(S(=O)(=O)N2CCOCC2)c1 | inconclusive [inhibitor, single point] |  |
| Cc1ccc(/C([O-])=C(/C(=S)Nc2ccc(SC(F)F)cc2)[n+]2ccccc2)cc1[N+](=O)[O-] | inconclusive [inhibitor, single point] |  |
| O=C(Nc1cc([N+](=O)[O-])c2[nH]c(=O)c3ccccc3c2c1)C(F)(F)F | inconclusive [inhibitor, full curve] |  |
| Cc1cc(C)c(C(N)=O)c(SCC(=O)c2cc(C)n(-c3cc(C)on3)c2C)n1 | active: 2.24 µM |  |
| CS(=O)(=O)n1nc(-c2ccc(Cl)cc2)nc1SCc1ccccc1 | inconclusive [inhibitor, partial curve] |  |
| COc1ccc(CC(=O)Nc2ccc(S(=O)(=O)NCC3CCCO3)cc2)cc1 (stereo unspecified) | inconclusive [inhibitor, partial curve] |  |
| CN(Cc1c(C(=O)N(C)Cc2ccccc2)nc2ccccn12)CC1Cc2ccccc2O1 (stereo unspecified) | inconclusive [inhibitor, single point] |  |

| Compound | Potency | activity change, negative = inhibition |
| --- | --- | --- |
| O=C(O)CN(CC(=O)O)CC(=O)O | inactive |  |
| Oc1c(C=Nc2cccc3nsnc23)ccc2ccccc12 | inactive |  |
| CCN(C(=O)COC(=O)c1cc(OC)ccc1Br)C1CCS(=O)(=O)C1 (stereo unspecified) | inactive |  |
| COc1ccc(NC(=O)Cn2ncc(Cl)c(Cl)c2=O)cc1S(=O)(=O)N1CCOCC1 | active: 8.91 µM |  |
| Cc1ccc(S(=O)(=O)NCc2ccc(C(=O)NCCN(Cc3ccccc3)C(C)C)cc2)cc1 | inconclusive [inhibitor, single point] |  |
| Nc1c(C(=O)Nc2ccc(S(=O)(=O)N3CCCC3)cc2)sc2nc3cc4c(cc3cc12)CCC4 | inconclusive [inhibitor, full curve, poor fit] |  |
| O=C(CCCCC(=O)NN=Cc1ccc(Cl)cc1)NN=Cc1ccc(Cl)cc1 | inconclusive [inhibitor, partial curve, poor fit] |  |
| CCCN(CCC)C(=O)CSc1nc2n[nH]c(C)c2c(=N)n1-c1ccc(OC)cc1 | inconclusive [inhibitor, partial curve] |  |
| COc1cc(OC)cc(-c2cc3cc(F)ccc3cn2)c1 | inconclusive [inhibitor, single point] |  |
| S=C(NCc1cccnc1)Nc1ccc(Oc2ccc(Cl)cc2)cc1 | inconclusive [inhibitor, partial curve] |  |
| COc1cc(Cl)c(CN2CCCC(CO)(Cc3cccc(Cl)c3)C2)cc1OC (stereo unspecified) | inconclusive [inhibitor, single point] |  |
| COc1ccc(C(=O)Nc2ccc(C3(C#N)CCCC3)cc2)cc1 | active: 5.62 µM |  |
| CC(C)Oc1c(Cl)cc(CNC(C)(C)CO)cc1Cl | inconclusive [inhibitor, partial curve] |  |
| Cc1cc(C)c2cc3c(N)c(C(=O)N4CCc5ccccc5C4)sc3nc2c1 | inconclusive [inhibitor, single point] |  |
| COc1ccc([N+](=O)[O-])cc1NC(=O)C(C)Sc1ccc(C)cc1 (stereo unspecified) | inconclusive [inhibitor, full curve] |  |
| COc1cccc(-c2nn(C)c3sc(C(=O)NCc4ccco4)cc23)c1 | active: 7.08 µM |  |
| O=[N+]([O-])c1ccc(S(=O)(=O)N2CCN(c3ccc(N4CCOCC4)nn3)CC2)cc1 | inactive |  |
| O=c1c([N+](=O)[O-])cn(O)cc1[N+](=O)[O-] | inactive |  |
| CCc1ccc(NC(=O)N(CCCN2CCOCC2)C(C)c2cc3cccc(OC)c3o2)cc1 (stereo unspecified) | inconclusive [inhibitor, partial curve] |  |
| COc1ccccc1N1CCN(/N=C(\C)c2ccccc2O)CC1 | inactive |  |
| Cc1[nH]c2ccccc2c1SCCNC(=O)c1ccc(Br)o1 | inconclusive [inhibitor, partial curve] |  |
| CC(=O)Nc1nc(C)c(CCC2OCCO2)c(=O)[nH]1 | inconclusive [inhibitor, full curve] |  |
| COc1ccc(CCNc2ncnc3c2nnn3Cc2ccccc2)cc1OC | inconclusive [inhibitor, partial curve] |  |
